# In all, about 33,000 sequences were measured (“E-score (-0.5 to 0.5)”: median about -0.012, highest 2% from about 0.27 on). The list shows a part of the results.
# Target: T1, Vhr1 (UniProt P40522)
# T1 sequence: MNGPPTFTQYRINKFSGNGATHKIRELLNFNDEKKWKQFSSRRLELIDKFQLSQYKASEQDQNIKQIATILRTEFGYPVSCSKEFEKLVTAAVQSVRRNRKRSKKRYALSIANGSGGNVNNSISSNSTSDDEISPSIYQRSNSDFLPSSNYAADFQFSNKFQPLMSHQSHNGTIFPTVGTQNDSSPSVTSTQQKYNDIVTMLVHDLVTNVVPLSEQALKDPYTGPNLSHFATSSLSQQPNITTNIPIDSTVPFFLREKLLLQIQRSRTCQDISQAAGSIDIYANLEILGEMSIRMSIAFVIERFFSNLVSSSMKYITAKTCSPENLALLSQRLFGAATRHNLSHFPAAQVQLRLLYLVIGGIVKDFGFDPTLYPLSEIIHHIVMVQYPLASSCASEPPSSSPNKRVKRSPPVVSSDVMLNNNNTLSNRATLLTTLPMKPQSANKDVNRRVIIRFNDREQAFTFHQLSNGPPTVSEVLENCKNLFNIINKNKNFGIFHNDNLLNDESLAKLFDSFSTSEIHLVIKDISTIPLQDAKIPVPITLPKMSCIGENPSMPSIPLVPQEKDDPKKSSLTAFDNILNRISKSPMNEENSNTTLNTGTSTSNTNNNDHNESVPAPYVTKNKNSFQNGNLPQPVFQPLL
# Test: PBM E-score (8-mer binding enrichment) (E-score (-0.5 to 0.5)); higher = stronger / more preferred TF binding; most listed sequences are background and not binding sites
# Conditions: protein concentration: 200 nM; construct: GST-full length
# How it was run: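 Bound GST-tagged yeast transcription factors, applied at about 100-200 nM to double-stranded universal all-10-mer Agilent arrays, were detected with fluorescent anti-GST. Scans were normalised with masliner. A modified Wilcoxon-Mann-Whitney statistic, the E-score, was assigned to each ungapped eight-base word pooled with its reverse complement by the Universal PBM Analysis Suite.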
row,Sequence,PBM E-score
1,ACCCTGAA,0.027
2,AGCAACGA,0.0476
3,GATACGCA,0.0973
4,GGCAAGAA,-0.138
5,GGGGCACA,-0.00095
6,GAGCAGGA,-0.076
7,AGCCACCA,0.242
8,ATATATAG,0.132
9,TCTAATAA,-0.104
10,ACGTATGC,-0.0116
11,ATTGAGGA,-0.0693
12,AAGGGTGG,-0.033
13,ACCTGCTG,0.157
14,AAGGAAGA,-0.203
15,AAACCCGA,0.0237
16,AGGCATGC,-0.114
17,CGCGAGAC,0.153
18,CCCATGTA,-0.0412
19,AGGAGTTC,-0.0753
20,AACTTCAG,-0.159
21,AAGTGTAC,-0.12
22,GGTTGAAA,-0.228
23,GTGATTGA,0.329
24,CGCAAACC,0.101
25,CCATATTA,0.143

row,Sequence,PBM E-score
1,GAGATAGA,-0.262
2,TCCATGGA,0.142
3,GGCCTCTA,-0.3
4,TAGTGTAA,-0.0368
5,TATGCCCA,0.00436
6,AAATGCAC,-0.234
7,ATCAAGTG,0.0742
8,CGGGGGAC,-0.0447
9,CAAAGTAG,-0.0641
10,AATCTCCA,-0.131
11,ACTATAGG,-0.0778
12,ACTTCACC,0.104
13,AGCTTATA,-0.242
14,CCCTGAGC,0.0346
15,CATTGGAA,-0.148
16,ACCATCAG,0.0625
17,CTGGCCTC,-0.0348
18,CCTCTAAG,-0.248
19,GGGCGTAA,-0.0807
20,GACTTCTA,-0.12
21,AGGCAGAC,-0.129
22,ACTCGACT,0.185
23,GAGCCCAC,0.0787
24,CCTGAACA,-0.0826
25,ACGGTGGA,-0.00957

row,Sequence,PBM E-score
1,CCTAAGTC,-0.0413
2,AGTGAAAT,-0.15
3,CGTTCATC,-0.0945
4,ATACGTAC,0.147
5,ATTACAGA,0.0764
6,AAGAAGTG,-0.132
7,CAACGTAA,0.00375
8,ATAATTGC,-0.106
9,CGATAAGA,-0.0316
10,CGTCTGAG,0.024
11,GGTGGCAA,-0.138
12,AGAGTTGG,-0.124
13,CAAGGTAC,-0.221
14,CATGTCTC,0.294
15,CCTACCTC,0.0528
16,GTCGGGAA,0.119
17,CCCCCGTA,-0.123
18,CTACTGAA,0.132
19,TACTTCAA,-0.0326
20,CGGGCAAG,-0.00415
21,CCAAATTC,-0.22
22,ATTGTAGG,0.138
23,CCCTGGAG,-0.0798
24,AGGGGACA,-0.0414
25,CTATATTA,0.194

row,Sequence,PBM E-score
1,ATGACCCA,0.362
2,CCCATAGC,-0.116
3,ACTTTGTC,-0.189
4,CCAGCTCA,-0.0283
5,GGGGCGTA,0.0672
6,CACTACCG,-0.0589
7,CCGGCTGA,0.17
8,TCGACACA,0.159
9,ATAGAGTA,-0.0569
10,GGTGCGAA,0.171
11,ACAAGCCG,-0.0672
12,GAACACGA,-0.01
13,GGTTCAAC,-0.00014
14,AAGATAGT,0.169
15,ATTGACCG,0.168
16,CCCAGATA,0.106
17,ATCTTATA,0.147
18,ACCATTCA,0.105
19,ACAGCCGC,0.0674
20,CAACGCGG,0.092
21,GAAGGCCA,-0.158
22,AATAACAA,-0.231
23,CACTACTG,0.0812
24,AAGAAAAG,-0.115
25,TCGTACAA,0.109

row,Sequence,PBM E-score
1,CCAAGCCA,-0.0301
2,AATCCGCA,0.191
3,AAGGTATC,-0.0689
4,CTGGCGTA,-0.00936
5,CTATGGTC,0.121
6,AATGTGCT,-0.0855
7,TCCGGTCA,-0.0985
8,ACGCTTTC,-0.137
9,CTGGCATC,-0.15
10,AGGGCCTA,-0.277
11,GAAACTAA,-0.163
12,GCTATGAA,0.0335
13,AACACAAT,-0.0343
14,ATTGTACG,-0.114
15,GTCCAGTA,-0.151
16,ATCGGGTG,0.217
17,CTGCCCCA,0.0236
18,ATACACGC,-0.0158
19,TCCACTAA,0.0296
20,ACTCCTAA,0.183
21,ACTGCGTA,-0.0109
22,ATAACATA,0.23
23,CGCCCGAG,0.21
24,CTGGGTAA,0.103
25,AAGGGCCA,-0.149

row,Sequence,PBM E-score
1,CGCGCAAA,0.0721
2,TGGCTACA,0.196
3,CAAACAAA,-0.0999
4,AAGGGAGA,-0.147
5,CACCTTGC,0.0863
6,GCTGCATA,0.0549
7,GATCATGA,0.197
8,CTCATCAC,0.0121
9,AGCTTTCA,-0.0375
10,ACCCCGAT,0.182
11,AATGGCCA,-0.0559
12,AGCGTCGA,0.109
13,CAAACAGC,0.173
14,GGTTGGAC,-0.175
15,CGACGGTC,0.127
16,AAGTGCTA,-0.0633
17,GCAGTTAA,0.0301
18,TCCTACCA,-0.189
19,ATTCCTTG,-0.0414
20,GAAGGAAA,-0.212
21,TGAGGGCA,-0.115
22,GGGTCAAC,0.243
23,ACATCTAC,0.155
24,GGGTTCGA,0.0751
25,AGCCGCAC,0.00836

row,Sequence,PBM E-score
1,AACGTCAG,-0.184
2,CATCGTTC,-0.0439
3,AACGCTGT,-0.0743
4,AATATCCC,0.0723
5,ATTAGGGC,-0.153
6,CAAATGCG,0.203
7,ATTGAACC,0.133
8,CAGAGTTC,-0.0458
9,CCCGCTAG,-0.249
10,CGCCTCAC,-0.096
11,GCTAAAAC,-0.203
12,GAACTTCA,-0.297
13,GGTGTCAA,0.0319
14,AGTGCCGA,-0.0946
15,GAGATAGC,-0.186
16,GAATTTCA,-0.31
17,CTCATTGC,-0.0552
18,CCAGGCAC,0.0544
19,CCCTCTCG,-0.307
20,CAACCAAC,-0.0512
21,TTCGGAAA,-0.25
22,ATTAGATA,-0.0732

# — the supplement of paper PMC3334620
